Results reported in patent US20120164688A1 (Regeneron, published 2012).

How the values were obtained:
[1] = target: T1, human nerve growth factor (NGF) (human, UniProt P01138 in part); assay: BIACORE SPR
T1 construct: range 122-241; biotin-labeled in OCTET and ELISA assays; also called human NGF; biotin-NGF
Description: (§1) Antibodies were captured on either a goat, anti-human or anti-mouse IgG polyclonal antibody surface created by direct amine coupling of the capture antibody to a BIACORE™ chip. […] Kinetic analysis was performed to obtain the equilibrium dissociation constant (KD) and dissociation rate constant, and the latter was used to calculate the antigen/antibody complex dissociation t_{1/2} (Table 1).
(§2) The binding affinities of the antibodies to both mNGF and rNGF were determined as described above.

mouse NGF (mNGF) = mouse NGF (mNGF) (mouse, UniProt P01139 122-241, limits assumed); assay: BIACORE SPR
Description: as §1, §2

rat NGF (rNGF) = rat NGF (rNGF) (rat, UniProt P25427 122-241, limits assumed); assay: BIACORE SPR
Description: as §1, §2

[2] = target: T1, human nerve growth factor (NGF); assay: cell-based or functional assay
[3] = target: T2, human neurotrophin-3 (NT-3) (human, UniProt P20783 139-257); assay: BIACORE SPR; mAb captured, NT-3 injected
T2 construct: also called human NT-3
T2 sequence (looked up): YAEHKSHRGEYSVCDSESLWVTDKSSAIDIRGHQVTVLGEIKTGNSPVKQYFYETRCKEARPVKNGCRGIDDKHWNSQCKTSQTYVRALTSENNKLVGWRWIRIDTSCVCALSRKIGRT
Description: Briefly, goat anti-human IgG polyclonal antibody was chemically linked to a CM5 chip. […] Both association and dissociation phases were monitored and data were analyzed.

[4] = target: T1, human nerve growth factor (NGF); assay: BIACORE SPR; complex dissociation half-life
Description: as §1

[5] = target: T1, human nerve growth factor (NGF); assay: BIACORE SPR; mAb captured, human NGF injected
Description: as §1

[6] = target: T1, human nerve growth factor (NGF); assay: BIACORE blocking; % free NGF bound to p75-hFc chip
Excerpt: (§3) To identify blocking antibodies, a receptor blocking assay was designed using a BIACORE™ 3000 instrument. Recombinant human TrkA-hFc and human p75-hFc proteins were amine-coupled to a CM5 chip to a density of about 5000-6000 RU.

[7] = target: T1, human nerve growth factor (NGF); assay: BIACORE blocking; % free NGF bound to TrkA-hFc chip
Excerpt: as §3

T1 sequence (P01138 122-241 limits assumed): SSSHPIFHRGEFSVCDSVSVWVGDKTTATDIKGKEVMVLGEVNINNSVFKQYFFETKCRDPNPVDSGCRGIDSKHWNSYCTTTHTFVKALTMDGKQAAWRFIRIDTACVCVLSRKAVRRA
rat NGF (rNGF), sequence (P25427 122-241 limits assumed): as the sequence (P01138 122-241 limits assumed) above, with S3T, I6V, R9M, M37T, D60A, D65E, M92T, G94D, V117A, A120G counted along it
mouse NGF (mNGF), sequence (P01139 122-241 limits assumed): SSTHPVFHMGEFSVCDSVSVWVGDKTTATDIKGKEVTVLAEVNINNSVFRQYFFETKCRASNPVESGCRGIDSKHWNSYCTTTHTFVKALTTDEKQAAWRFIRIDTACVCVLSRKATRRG

B1: 301272-6E07-D10 (antibody)
heavy: EVQLVQSGGGLVQPGRSLRLSCAAPGFNFDDYAMHWVRQTPGKGLEWVSGISWNSGTIGYADSVKGRFTISRDNAKNSLYLQMNSLRPEDTALYYCAKEGVWFGKLFSSYGMDVWGQGTTVTVSS[human IgG1 constant region omitted here]
VL: DIRMTQSPATLSVSPGERATLSCRASQSVTYNLDWYQQKPGQAPRLLIFGASTRATGIPARFSGSGSGTEFTLTITSLQSEDFAVYYCQQYNNWPYTFGQGTKVEIK
notes: also called REGN263
- Kd [1]: 13 pM
- Kd (mouse NGF (mNGF)): 362 pM
- Kd (rat NGF (rNGF)): 360 pM
- MG87 IC50 [2]: 293 pM
- PC12 IC50 [2]: 726 pM
- binding result [3]: no binding (tested: 20 nM)
- t1/2 [4]: 4.5 h
- Kd [5]: 13 pM
- % Binding p75-hFc [6]: 6%
- % Binding TrkA-hFc [7]: 4%
